A collection of fitness landscapes (doi:10.1016/j.celrep.2020.107928)
Whole data set: some 81,000 sequences, median “one-hybrid fitness for binding parS DNA” near -0.17, cut for the highest 2% near 0.51. Some of the results follow.

B1: Caulobacter ParB omega fusion; a variant is named by its letters at X, in order, B8GW30 (parent)
chain: MESVVVGEPGMSEGRRGLGRGLSALLGEVDAAPAQAPGEQLGGSREAPIEILQRNPDQPRRTFREEDLEDLSNSIREKGVLQPILVRPSPDTAGEYQIVAGERAWRAAQRAGLKTVPIMVRELDDLAVLEIGIIENVQRADLNVLEEALSYKVLMEKFERTQENIAQTIGKSXSHVANXMRLLXLPDEVQSYLVSGELTAXHARAIAAAADPVALAKQIIEGGLSVRETEALARKAPNLSAGKSKGGRPPRVKDTDTQALESDLSSVLGLDVSIDHRGSTGTLTITYATLEQLDDLCNRLTRGI

Variants of: B1
Assay: one-hybrid fitness for binding parS DNA (scaled: cognate 1, non-cognate 0); higher = stronger binding
Details: with parS DNA site
Summary of the method: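 On M9-minus-histidine containing 0.1 mM IPTG and 5 mM 3-AT, E. coli USO cells with a HIS3 reporter, site 19 bp from the promoter, grew 48 hours at 37°C to select Caulobacter ParB libraries randomised at four specificity codons. Plasmids from before and after were Illumina-sequenced, with three replicate libraries pooled and variants under 10 reads left out. Fitness is the log change in variant-to-wild-type read ratio, rescaled against cognate and non-cognate.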

Row | Variant | one-hybrid fitness for binding parS DNA
1 | LLRC | ≤ 0.2
2 | NRIH | 0.325
3 | KIIS | ≤ 0.2
4 | TLMI | ≤ 0.2
5 | TPKF | ≤ 0.2
6 | VAWF | ≤ 0.2
7 | SMLR | ≤ 0.2
8 | VDAN | ≤ 0.2
9 | TLRP | ≤ 0.2
10 | ATAC | ≤ 0.2
11 | TAID | ≤ 0.2
12 | QMSN | ≤ 0.2
13 | YIPE | ≤ 0.2
14 | QNSQ | ≤ 0.2
15 | TYHR | ≤ 0.2
16 | SKQT | ≤ 0.2
17 | MARP | ≤ 0.2
18 | YRRK | ≤ 0.2
19 | TSRH | ≤ 0.2
20 | NAQR | ≤ 0.2
21 | WNTN | ≤ 0.2
22 | WTSC | ≤ 0.2
23 | QVKY | ≤ 0.2
24 | KPRT | ≤ 0.2
25 | IFWR | ≤ 0.2

Row | Variant | one-hybrid fitness for binding parS DNA
26 | LPNM | ≤ 0.2
27 | PALS | ≤ 0.2
28 | RMSH | ≤ 0.2
29 | RKGG | 0.937
30 | TAAY | ≤ 0.2
31 | QPLT | ≤ 0.2
32 | ANLS | ≤ 0.2
33 | RQTC | 0.966
34 | IKVR | ≤ 0.2
35 | LQYG | ≤ 0.2
36 | CTLE | ≤ 0.2
37 | IDPK | 0.227
38 | CQVF | ≤ 0.2
39 | PMLE | ≤ 0.2
40 | GESN | ≤ 0.2
41 | FPYR | ≤ 0.2
42 | DCHS | ≤ 0.2
43 | KRTL | ≤ 0.2
44 | VPHE | ≤ 0.2
45 | WNTG | ≤ 0.2
46 | QVPT | ≤ 0.2
47 | DAVL | ≤ 0.2
48 | QMQG | ≤ 0.2
49 | EQLW | ≤ 0.2
50 | GLLL | ≤ 0.2

Row | Variant | one-hybrid fitness for binding parS DNA
51 | IRQT | ≤ 0.2
52 | QALD | ≤ 0.2
53 | AYFR | ≤ 0.2
54 | QFKH | ≤ 0.2
55 | IKIC | 0.201
56 | PSSS | ≤ 0.2
57 | SPGQ | ≤ 0.2
58 | RGQC | 0.649
59 | QTDQ | ≤ 0.2
60 | ETLN | ≤ 0.2
61 | AGPS | ≤ 0.2
62 | RCID | ≤ 0.2
63 | RSPN | ≤ 0.2
64 | EEHG | ≤ 0.2
65 | QTHA | ≤ 0.2
66 | IQGF | ≤ 0.2
67 | IRQS | ≤ 0.2
68 | MAER | ≤ 0.2
69 | DCRM | ≤ 0.2
70 | ESCG | ≤ 0.2
71 | FANC | ≤ 0.2
72 | ATSM | ≤ 0.2
73 | CHLC | ≤ 0.2
74 | TLGP | ≤ 0.2
75 | KMPE | ≤ 0.2

Row | Variant | one-hybrid fitness for binding parS DNA
76 | LLSC | ≤ 0.2
77 | RWGH | ≤ 0.2
78 | LVKC | ≤ 0.2
79 | VMPN | ≤ 0.2
80 | IVSM | 0.508
81 | SRMN | ≤ 0.2
82 | CGNG | ≤ 0.2
83 | VEIW | ≤ 0.2
84 | TQLA | ≤ 0.2
85 | AKLY | ≤ 0.2
86 | QFSW | ≤ 0.2
87 | NTRY | ≤ 0.2
88 | LLHN | ≤ 0.2
89 | PTNK | ≤ 0.2
90 | ALPS | ≤ 0.2
91 | NKGR | ≤ 0.2
92 | IVMP | ≤ 0.2
93 | LQWR | ≤ 0.2
94 | QRIF | ≤ 0.2
95 | APAS | ≤ 0.2
96 | EWNI | ≤ 0.2
97 | ATQG | ≤ 0.2
